# According to the supplement of paper PMC3334620:
# Over roughly 33,000 sequences, “E-score (-0.5 to 0.5)” has its median near -0.036; the highest 2% begin near 0.37. The list shows a part of the results.
# Molecular target: T1, Yer064c (UniProt P40041)
# T1 sequence: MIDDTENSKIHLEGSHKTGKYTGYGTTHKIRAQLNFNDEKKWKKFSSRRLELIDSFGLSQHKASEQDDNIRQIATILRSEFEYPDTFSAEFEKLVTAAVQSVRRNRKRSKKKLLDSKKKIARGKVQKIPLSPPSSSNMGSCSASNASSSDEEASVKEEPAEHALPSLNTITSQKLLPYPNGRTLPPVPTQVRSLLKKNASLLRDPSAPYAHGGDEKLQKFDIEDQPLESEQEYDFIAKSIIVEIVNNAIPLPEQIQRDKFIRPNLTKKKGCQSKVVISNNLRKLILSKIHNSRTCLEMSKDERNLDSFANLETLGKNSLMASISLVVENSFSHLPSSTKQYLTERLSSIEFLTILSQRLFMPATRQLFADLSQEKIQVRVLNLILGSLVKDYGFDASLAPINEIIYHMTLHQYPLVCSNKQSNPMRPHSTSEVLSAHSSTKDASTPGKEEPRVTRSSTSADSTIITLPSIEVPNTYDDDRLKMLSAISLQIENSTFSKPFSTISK
# Assay: PBM E-score (8-mer binding enrichment) (E-score (-0.5 to 0.5)); higher = stronger / more preferred TF binding; most listed sequences are background and not binding sites
# Conditions: protein concentration: 200 nM; construct: GST-full length
# Outline: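 Yeast transcription factors carrying a GST tag, as full-length proteins or DNA-binding domains, were produced by PURExpress in vitro transcription/translation. About 100-200 nM protein was applied to universal all-10-mer Agilent arrays, double-stranded by primer extension on fresh or once-stripped slides. Bound protein was detected with fluorescent anti-GST, and scans were normalised with masliner. The Universal PBM Analysis Suite gave each ungapped eight-base word, pooled with its reverse complement, an E-score, a modified Wilcoxon-Mann-Whitney statistic.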
row,Sequence,PBM E-score
1,ACTGGCCC,-0.0743
2,CCAGGGGG,-0.216
3,CCGGGGTA,-0.16
4,AACAGGGC,-0.141
5,ACCGCCCA,-0.117
6,AAGAGACA,0.128
7,GCGTCTCA,-0.16
8,CCACGGCC,-0.131
9,AACCAAAG,-0.00439
10,CTCAAATC,0.158
11,AATCCGCG,-0.104
12,ATGGCGCA,-0.153
13,CGATCGAA,0.00969
14,ACTATTTA,0.173
15,AGCCGGGG,-0.156
16,CCAGTACC,-0.159
17,GAGTAGTA,0.0874
18,CCTACCCG,-0.115
19,CACATAGC,-0.00061
20,AGCTATGC,-0.125
21,CAATGGCA,-0.053
22,CTACTTAC,-0.0538
23,CATCTGAC,0.222
24,AACTATCC,-0.235
25,GCCGAACC,-0.327

row,Sequence,PBM E-score
1,AACAATTA,0.0684
2,GGTGGGAC,-0.142
3,AATTCTGT,-0.137
4,ATTACACC,-0.00721
5,CTACGCAC,-0.047
6,CGTTACAC,0.165
7,GCGTTTCA,-0.149
8,ACTGAAAG,0.0799
9,GGTGTCCA,-0.00902
10,CCCTTGGA,-0.0274
11,CCAGCGTA,0.00471
12,AGATGCAC,-0.186
13,CAAAGTCA,0.399
14,CTTGCCGC,-0.264
15,CTATTCGA,0.0375
16,GAAGCTTC,-0.364
17,GGTTAGCA,0.025
18,GAATTCAA,0.0377
19,GGCATCCA,-0.182
20,CCGAGGTA,0.0799
21,AAAAATGC,-0.198
22,AAGCATTG,-0.159
23,GAACGGAC,-0.107
24,GTGGAGCA,-0.0738
25,AGGAGATC,-0.0771

row,Sequence,PBM E-score
1,AGCCTTAA,0.195
2,AAGGGTAC,-0.103
3,AACAAGTG,0.114
4,AATCTTCA,0.254
5,AGGAAGCC,-0.235
6,CGACCCAC,-0.0561
7,CAGCACTA,-0.0499
8,GCTCCGAA,-0.175
9,AGTATTCC,0.0206
10,GTGTTTGA,0.196
11,ACACTGAT,0.0338
12,TATTTGCA,0.0422
13,TGTCCACA,-0.162
14,AAGTATTG,0.00997
15,CCCAGTTC,0.00772
16,GGAGCCGA,-0.12
17,ACCAGGAC,0.0899
18,ACAAGAAA,0.102
19,AGAATGAG,0.22
20,AGGCGAGA,-0.152
21,CGTAGGAC,0.128
22,CCTTTCTA,-0.251
23,GACACAAA,0.0648
24,CTCGTGCA,0.17
25,CGGAATCC,-0.0704

row,Sequence,PBM E-score
1,CGCGATAC,-0.206
2,AATCCATA,0.0696
3,ACAACGGG,-0.00872
4,GCTTACTA,0.00123
5,AGAATCAC,0.374
6,CCACGTCG,-0.107
7,ACTCACCG,0.384
8,CGACTAGA,0.212
9,CCAGGCTA,-0.271
10,CCGACGGA,-0.131
11,GTAGGACA,-0.0812
12,CATTTGAC,0.0216
13,CTTGAGCA,-0.00447
14,ACGGCAAT,0.0667
15,CAGGCTCG,-0.142
16,GTCCCAAA,0.0199
17,CTAACTAC,0.0788
18,TCACGTGA,0.219
19,GCGACTCA,0.483
20,GAAAATTA,0.0285
21,GGAACAAA,-0.0034
22,CTAGGACC,-0.266
23,AGTAGAGA,0.0203
24,TACCGGAA,-0.0655
25,CTCGGTAC,0.03

row,Sequence,PBM E-score
1,CCCGACAA,-0.0708
2,CCCGCGTA,-0.204
3,ACAATGGG,-0.0921
4,GCGCTCAC,-0.0637
5,CGTCTGTA,-0.0838
6,AGTATAAA,0.18
7,ATGGGCAC,-0.0865
8,AGGATGAA,-0.103
9,GAGCGGGC,-0.262
10,AAAGCTCA,0.00789
11,AGACAATC,0.123
12,AGTCCCGG,0.00582
13,GAAACCCA,-0.0385
14,CTTAACAA,0.0734
15,ATCTGTTG,-0.0199
16,TGAGACCA,0.149
17,CACGTTAA,-0.0619
18,GCGCTATA,-0.163
19,AGCTGCGG,-0.247
20,ACAGATCG,-0.0843
21,AAGCCTAG,0.0633
22,CTGCACGC,-0.246
23,GCTTATAA,-0.0737
24,ACCGCAGA,-0.119
25,TCTCGAGA,0.0622

row,Sequence,PBM E-score
1,AGATCAAT,-0.044
2,AGGTCTAT,-0.125
3,CTATATGC,-0.0896
4,CGACGCTA,-0.0421
5,GATCTAGC,-0.138
6,CCGATAAG,0.0299
7,AGCCGAGG,-0.13
8,AATTTGAA,0.0382
9,ACATGTTA,0.0588
10,CTAGTATC,0.0137
11,CATAAGCA,-0.0777
12,TAACACCA,-0.0608
13,AACATACT,-0.144
14,AGGTGTGC,-0.148
15,ACATTATG,0.169
16,AGCCTTAG,0.0677
17,GATTGAAA,0.212
18,CCCGTGCA,-0.291
19,CCTCAGAG,-0.0268
20,TACGCGCA,-0.102
21,ACGACAGT,0.0671
22,AATACTCA,0.329
23,GTCCCAGA,-0.228
24,AGTCTGGC,0.0851
25,CGAACATC,-0.176

row,Sequence,PBM E-score
1,AGTGGAGA,-0.0607
2,CTCACGAC,0.297
3,AAGGCTGG,-0.14
4,CCCAAAAG,-0.066
5,ATAGGGGG,-0.2
6,ATAGTGGC,-0.204
7,ATCATACG,0.141
8,AAGGAACG,-0.167
9,ATACTGAA,0.0805
10,AACACCTG,0.0786
11,AGCCGCCG,-0.073
12,GTTCTGTA,0.124
13,CATACTGG,0.0217
14,ATACGAGC,0.12
15,AGAACATA,-0.147
16,ACTTCAGG,0.0199
17,CAACGCCA,-0.173
18,TTCCCAAA,-0.0393
19,CATGCTGA,0.21
20,GCCCTATA,-0.14
21,CTTGACAC,-0.11
22,ATCCGGCC,-0.236
